# Laboratory results as given in PubChem BioAssay (NCI).
# “And” between values parts separate entries of the source, which are not always exact repeats. Identical values can stand only once.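 96-well plates; 48 h exposure; 5 concentrations. Endpoints by linear interpolation between flanking doses. Not reached: highest tested concentration assigned. Abbreviation: GI50, concentration required for 50% inhibition of growth. TGI denotes the concentration required for complete inhibition of growth.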
# Tested on: NCI-H322M lung
# Assay: NCI-60 cell line screen, 48 h
SMILES,TGI,GI50 [µM]
Cc1cc2[nH]c(Cl)c(/C=C3\C(=O)Nc4ccccc43)c2cc1O,17.9 µM,
Cc1cc(O)c(C=O)c2c1C(=O)Oc1c(CO)c(O)c3c(c1O2)C(O)OC3=O (configuration not stated),> 100 µM,
Cc1cc(O)c(C(=O)O)c2c1C(=O)c1c(O)c(OCC(O)C(O)C(O)C(O)CO)c(O)c(O)c1C2=O (configuration not stated) (tested in a mixture with another compound),> 100 µM,
CCOC(=O)C1(O)C(=O)C2=C3C(=O)OC(C4OC(=O)c5c(c(O)c(O)c(O)c5C31)-c1c(cc(O)c(O)c1O)C(=O)OC1COC(=O)c3cc(O)c(O)c(O)c3-c3c(cc(O)c(O)c3O)C(=O)OC14)[C@@H]2O (some centres not stated),> 100 µM,
CCCC1C(CC)C(NC)C(C#N)(C#N)C1(C#N)C#N (configuration not stated),42 µM,
CCCS(=O)(=O)Nc1ccc(F)c(C(=O)c2c[nH]c3ncc(Cl)cc23)c1F,> 100 µM,6.8
CN(C)Cc1cc(N=Nc2ccccc2)ccc1O,> 100 µM,
NCCN.NCCN.[Cl-].[O]=[Os+2]=[O],> 100 µM,> 100
N#CC1CNC(N)NC1N (configuration not stated),> 100 µM,
CSC1=NN(c2ccccc2)C(=O)C1=C(SC)SC,79 µM,
COc1cccc2c1C(=O)c1c(O)c3c(c(O)c1C2=O)C[C@@](O)(C(C)O)C[C@@H]3OC1CC(N)C(O)C(C)O1 (some centres not stated),> 59.6 µM,3.86
COc1ccccc1/C=C1\Sc2scc(-c3ccc(O)c(O)c3)[n+]2C1=O,> 100 µM,
CC(=O)O[C@H]1CC2C(C3CCC(C(C)CCC(=O)O)[C@]31C)[C@H](OC(C)=O)C[C@@H]1CC3(CC[C@]21C)OOC1(CC[C@]2(C)C4C[C@H](OC(C)=O)[C@]5(C)C(C(C)CCC(=O)O)CCC5C4[C@H](OC(C)=O)C[C@@H]2C1)OO3 (some centres not stated),14.2 µM,
Nc1nc(/C=C\c2ccc([N+](=O)[O-])cc2)nc(N2CCN(c3ccccc3)CC2)n1,60.6 µM,20.8
CN1CCc2c(c3ccccc3c3ccccc23)C1,22.5 µM,4.35
S=C(S)N1CCN(c2cccc(Cl)c2)CC1,> 100 µM,
CCCCc1ccc(Nc2cc(=O)n(C)c(=O)[nH]2)cc1,> 100 µM,
O=C(NCc1ccc(Cl)cc1Cl)c1ccc(NC2=C(Cl)C(=O)N(Cc3ccccc3)C2=O)cc1,> 100 µM,77
COc1cc(C[C@@H](C)N)cc(OC)c1,> 100 µM,
COc1ccc(/C=C2\C(=O)N(C(=O)c3ccc(NC(C)=O)cc3)N=C2C)cc1,> 100 µM,
O=NN(CCCl)C(=O)NCCCl,250 µM and 370 µM and > 500 µM,> 449
CC1(C)OC2C(CO)OC(n3cnc(N)nc3=O)C2O1 (configuration not stated),> 100 µM,
Nc1nc(-c2ccccc2)c(Cl)c(-c2cc(Cl)ccc2O)n1,> 100 µM,
O=C(O)c1cccc2cccc(-c3c4ccc(=O)cc-4oc4cc(O)ccc34)c12,> 100 µM,

SMILES,TGI,GI50 [µM]
CCCc1onc(CCC(=O)N(Cc2ccccc2)Cc2ccccc2)c1CC,> 100 µM,
COc1cc(S(=O)(=O)Nc2nc(-c3ccc(N=Cc4cccs4)cc3)cs2)ccc1Cl,> 100 µM,
Cc1ccc([N+](=O)[O-])cc1S(=O)(=O)Nc1ccc(C(=O)/C=C/c2cccs2)cc1,53.1 µM,
O=C(Nc1cccc(-n2cc(-c3ccncc3)c(-c3ccc(Cl)c(O)c3)n2)c1)Nc1ccc(Cl)c(C(F)(F)F)c1,4.79 µM,1.11
CC(C)(CN1CCCCC1)C(/C=C/c1ccc(Cl)c(Cl)c1)=N\NC(=O)N/N=C(/C=C/c1ccc(Cl)c(Cl)c1)C(C)(C)CN1CCCCC1,3.23 µM,
C1CSCCCSCCCSCCCSCCCSC1,> 100 µM,
Cc1ccc([N+](=O)[O-])cc1S(=O)(=O)Nc1ccc(C2=NN(C(=O)c3ccccc3)C(c3ccccc3)C2)cc1 (configuration not stated),> 100 µM,
Nc1cc(-c2ccccc2)nn1-c1nsc2ccccc12,> 100 µM,
O=C1CCCCCCCCCCC(=O)N2CCOCCOCCN1Cc1cccc(n1)C2,> 100 µM,
CN1C2CCC1CN(CCOC(c1ccc(F)cc1)c1ccc(F)cc1)C2,> 100 µM,
O=C(c1cc(Cl)ccc1Cl)N1CCN(c2cccc(Cl)c2)CC1,93.4 µM,
C=CC1(CC)/C(=N\O)C(CC)(CC)C(=O)N1O (configuration not stated),> 100 µM,
CC(=O)C1=C(c2ccccc2)N(C2OC(CO)C(O)C(O)C2O)C(S)=C(C#N)C1c1ccc(Cl)cc1 (configuration not stated),> 100 µM,
C=C1C(O)C23CCC4C(C(=O)O)(C(=O)O)CC(OC5OC(CO)C(O)C(OC(=O)CCc6ccccc6)C5NC(=O)CC(C)C)CC4(C)C2CCC1(O)C3 (configuration not stated),> 100 µM,
O=S(=O)(Nc1ccccc1)c1ccc(-c2c3nc(c(-c4ccc(S(=O)(=O)Nc5ccccc5)cc4)c4ccc([nH]4)c(-c4ccc(S(=O)(=O)Nc5ccccc5)cc4)c4nc(c(-c5ccc(S(=O)(=O)Nc6ccccc6)cc5)c5ccc2[nH]5)C=C4)C=C3)cc1,> 31.6 µM,
CN(Cc1cnc2c(n1)C(N)=NN(N)N2)c1ccc(C(=O)NC(CCP(=O)(O)O)C(=O)O)cc1 (configuration not stated),> 100 µM,
C/C1=C\[C@H](C)C[C@H](C)OC(=O)C[C@H](c2ccc(O)cc2)NC(=O)[C@H](Cc2ccc(O)c(I)c2)N(C)C(=O)[C@H](C)NC(=O)[C@@H](C)C1,> 25 µM,
CN1C2CCC1CC(CC(=O)NC(c1ccc(F)cc1)c1ccc(F)cc1)C2 (configuration not stated),> 100 µM,
CN1CCN(CCCOc2ccc3nc(Nc4cc(Cl)cc(Cl)c4)ccc3c2)CC1,3.85 µM,1.95
Nc1ccc2c(c1)C(=O)N(OS(=O)(=O)c1ccccc1)C2=O,> 100 µM,
C[N+](C)(CCNC(=O)c1cccc2cc3ccccc3nc12)Cc1ccc([N+](=O)[O-])cc1,> 100 µM,
COc1ccc2cc1Oc1ccc(cc1)CC1c3cc4c(cc3CCN1C)Oc1c(OC)cc3c(c1O4)C(C2)N(C)CC3 (configuration not stated),15 µM,
O=P(O)(NCCCl)NCCCl,> 100 µM,> 100
FC(F)(F)c1nnn[n-]1.[Au+].c1ccc([PH+](c2ccccc2)c2ccccc2)cc1,29.8 µM,16.1

SMILES,TGI,GI50 [µM]
C[C@@H]1C[N+]2([O-])[C@H]3C4=CCC[C@@H]4CC[C@H]3[C@@]3(C)OC(=O)CC[C@]34CC[C@H]1[C@@H]42 (some centres not stated),> 60 µM,> 60
O=[N+]([O-])c1ccc(C2=NN(c3ccccc3)C[N+](c3ccc(Br)cc3)=N2)cc1,> 100 µM,
O=c1c2cc([N+](=O)[O-])ccc2[nH]n1Cc1ccccn1,> 100 µM,
Cc1cc(NS(=O)(=O)c2ccc(NC(=O)c3cccn4c(=O)c5ccccc5nc34)cc2)no1,> 100 µM,
COc1ccc(C(=O)c2cc(OC)c3c(c2)OCO3)cc1O,> 100 µM,2.11
OC1(c2ccccc2)c2ccccc2NC2=NCCN21 (configuration not stated),> 100 µM,
CCc1ccc(CNCC(O)c2ccccc2)cc1 (configuration not stated),92.7 µM,22.8
O=C1Nc2ccccc2C1=Nc1ccc(S(=O)(=O)Nc2nccs2)cc1,> 100 µM,
Cc1cc2ncn(C3CCCO3)c2cc1C (configuration not stated),> 100 µM,
CC(C)=CCc1c(O)c(CC=C(C)C)c2oc(-c3ccc(O)cc3O)c(CC=C(C)C)c(=O)c2c1O,25.4 µM,
C=C1CCC2C(C)(CO)C(O)CCC2(C)C1CC(O)/C(=C/CO)C(=O)O (configuration not stated),> 100 µM,
Cn1ncc2[nH]cnc2c1=S,> 100 µM,
CN(C)CCC=C1c2ccccc2C=Cc2ccccc21,22.1 µM,
O=C(O)CNC(=O)C(CS)Cc1ccccc1 (configuration not stated),> 25 µM,> 25
O=[N+]([O-])c1ccccc1S(=O)(=O)c1cc(O)cc2c1NCCC2,32.1 µM,
CCc1cccc(C)c1NC(=O)C1=C(C)NC(C)=C(C(=O)Nc2c(C)cccc2CC)C1c1ccc([N+](=O)[O-])cc1,> 100 µM,
CCOC(=O)[C@H]1O[C@@H]1C(=O)N[C@@H](CC(C)C)C(=O)NCCc1ccc(O)cc1,> 100 µM,> 100
O=C(Cn1ccnc1[N+](=O)[O-])c1ccccc1,> 100 µM,
Cc1nn(C2OC(CO)C(O)C(F)C2O)c(=O)[nH]c1=O (configuration not stated),> 100 µM,
CC(=O)O[C@H]1CCC2(C)C(=CCC3C2CCC2(C)/C(=N/OC(=O)c4ccc(N(CCCl)CCCl)cc4)CCC32)C1 (some centres not stated),> 100 µM,> 100
Nc1nc2c(c3ncccc13)C(c1cccc(Br)c1)Cc1ncccc1-2 (configuration not stated),36.1 µM,3.46
O=C(O)c1cc(C(=O)O)nc(C(=O)O)c1,> 100 µM,
CCCCN1CCN(c2ccc3nc(-c4ccc5nc(-c6ccc(OC)c(OC)c6)[nH]c5c4)[nH]c3c2)CC1,5.36 µM,1.85
O=[N+]([O-])c1ccc2c(c1)Sc1ccccc1N2CCCCCl,> 100 µM,

SMILES,TGI,GI50 [µM]
CN1CCN(C(=S)N(C(=O)c2cccs2)C2CCCCC2)CC1,> 100 µM,
CCOP(=O)(O)C(Nc1ccc(N=Nc2ccccc2)cc1)c1ccc(C(Nc2ccc(N=Nc3ccccc3)cc2)P(=O)(O)OCC)cc1 (configuration not stated),61.4 µM,
CC1=NCCc2cc3[nH]c4ccccc4c3cc21,78.9 µM,
COc1ccc(NC(=O)/C(Cc2nc3ccccc3[nH]c2=O)=N\O)c(OC)c1,> 100 µM,
COc1ccc(C(N)=O)c(OC)c1OCc1ccccc1,> 100 µM,
Oc1ccc2ccccc2c1CN(Cc1c(O)ccc2ccccc12)C1CCCCC1,85.4 µM,
CC1CC(c2ccc([N+](=O)[O-])cc2)=Nc2ccccc2S1 (configuration not stated),> 100 µM,
Nc1ccc(C(c2ccccc2)(c2ccccc2)c2ccccc2)cc1,> 100 µM,
O=c1[nH]c(=O)n(C2CC(O)C(CO)O2)c2nc3cc4ccccc4cc3nc12 (configuration not stated),> 100 µM,
CC(C)(C)OC(=O)C1C(=O)NC(=O)CC1CC(OCc1ccccc1)C(COCc1ccccc1)OCc1ccccc1 (configuration not stated),> 100 µM,
C#C[C@]1(O)CC[C@H]2[C@@H]3CCC4=CC(=NCCOC(=O)c5cccc6c(=O)c7ccccc7[nH]c56)CC[C@@H]4[C@H]3CC[C@@]21C,> 100 µM,
O=C(NC(=S)Nc1ccccc1)c1ccc([N+](=O)[O-])cc1,> 100 µM,
O=C(O)/C(=C/C(=O)c1ccc(Cl)cc1)NNc1ccc([N+](=O)[O-])cc1[N+](=O)[O-],> 100 µM,
COc1ccc(C2[C@H]3C(=O)N(c4ccc(Cc5ccc(N6C(=O)[C@@H]7ON(c8ccccc8)C(c8ccc(OC)cc8)[C@@H]7C6=O)cc5)cc4)C(=O)[C@H]3ON2c2ccccc2)cc1 (some centres not stated),> 100 µM,
CC1CC2OC(=O)CC2C[C@@H]1O[Si](C)(C)C(C)(C)C (some centres not stated),> 100 µM,
CCOC(=O)c1sc2nc(SC)nc3c2c1NCN3C1CC1,> 100 µM,
CC(=O)NCCc1c(-c2[nH]c3ccccc3c2CCNC(C)=O)[nH]c2ccccc12,> 100 µM,
O=C(CC1=Nc2nnc(CCCCCCCc3nnc4n3C(=O)C(CC(=O)c3ccccc3)=N4)n2C1=O)c1ccccc1,> 100 µM,
Cc1cc(S(=O)(=O)n2ccnc2Oc2cccc(Cl)c2)c(SSc2cc(Cl)c(C)cc2S(=O)(=O)n2ccnc2Oc2cccc(Cl)c2)cc1Cl,> 100 µM,
O=S(=O)(O)SC/C=C\CSS(=O)(=O)O,> 100 µM,
CN(C)CCCNC(=O)N/N=C/c1ccc([N+](=O)[O-])cc1,> 100 µM,
